Data taken from the supplement of paper PMC3334620.
Over roughly 33,000 sequences, “E-score (-0.5 to 0.5)” has its median near -0.036; the highest 2% begin near 0.37. This is one part of the list.

Molecular target: T1, Yer064c (UniProt P40041)
T1 sequence: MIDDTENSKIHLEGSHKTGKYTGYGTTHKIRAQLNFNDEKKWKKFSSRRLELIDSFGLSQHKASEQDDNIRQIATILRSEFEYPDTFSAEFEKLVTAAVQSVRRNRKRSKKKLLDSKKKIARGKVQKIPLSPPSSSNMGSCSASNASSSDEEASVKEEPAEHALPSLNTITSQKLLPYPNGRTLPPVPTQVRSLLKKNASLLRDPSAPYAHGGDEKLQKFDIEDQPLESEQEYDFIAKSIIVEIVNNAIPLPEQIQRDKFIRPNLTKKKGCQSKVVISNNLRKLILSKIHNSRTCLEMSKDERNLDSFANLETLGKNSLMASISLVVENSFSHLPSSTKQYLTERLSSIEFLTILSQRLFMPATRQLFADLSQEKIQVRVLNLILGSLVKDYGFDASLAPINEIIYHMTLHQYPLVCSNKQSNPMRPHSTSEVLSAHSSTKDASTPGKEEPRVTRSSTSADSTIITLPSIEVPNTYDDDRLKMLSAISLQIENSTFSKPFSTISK
Test: PBM E-score (8-mer binding enrichment) (E-score (-0.5 to 0.5)); higher = stronger / more preferred TF binding; most listed sequences are background and not binding sites
Conditions: protein concentration: 200 nM; construct: GST-full length
How it was run: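 GST-tagged yeast TFs (full-length or DNA-binding domain) were made by PURExpress in vitro transcription/translation and applied at about 100-200 nM to universal all-10-mer Agilent arrays. The arrays were made double-stranded by primer extension, on fresh or once-stripped slides. Bound protein was detected with fluorescent anti-GST, and scans were normalised with masliner. Each ungapped eight-base word, pooled with its reverse complement, received an E-score (modified Wilcoxon-Mann-Whitney statistic) from the Universal PBM Analysis Suite.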

**Q.** How did the “PBM E-score” value turn out when CCAAGTGA was run?
**A.** 0.0575

**Q.** ATCGCACC was tested. Which “PBM E-score” value did it give?
**A.** -0.163

**Q.** For GGCGTACC, which “PBM E-score” value is on record?
**A.** -0.343

**Q.** Which “PBM E-score” value does the source give for TTCGCGAA here?
**A.** 0.2

**Q.** CATAGATA was tested. Which “PBM E-score” value did it give?
**A.** -0.101

**Q.** Which “PBM E-score” value does the source give for CGGAAAGC here?
**A.** -0.189

**Q.** Which “PBM E-score” value does the source give for ATCTGCCC here?
**A.** -0.187

**Q.** With AAACTTAG as the sequence, how does the “PBM E-score” value read?
**A.** 0.00969

**Q.** TCGATACA was tested. Which “PBM E-score” value did it give?
**A.** 0.00742

**Q.** How did the “PBM E-score” value turn out when ACTAGCAC was run?
**A.** 0.0637

**Q.** CCGGTGAC was tested. Which “PBM E-score” value did it give?
**A.** 0.198

**Q.** How did the “PBM E-score” value turn out when AGTTGTAA was run?
**A.** 0.102

**Q.** ATTTTATA was tested. Which “PBM E-score” value did it give?
**A.** 0.0869

**Q.** For CTCCGATA, which “PBM E-score” value is on record?
**A.** -0.0168

**Q.** AGCAATGG was tested. Which “PBM E-score” value did it give?
**A.** -0.0883

**Q.** How did the “PBM E-score” value turn out when GCTTCTAC was run?
**A.** -0.109

**Q.** For AGGACAGA, which “PBM E-score” value is on record?
**A.** -0.0647

**Q.** GACCAGTC was tested. Which “PBM E-score” value did it give?
**A.** 0.234

**Q.** Which “PBM E-score” value does the source give for ATGGTGAG here?
**A.** -0.0373

**Q.** With CTTGAATA as the sequence, how does the “PBM E-score” value read?
**A.** 0.0464

**Q.** How did the “PBM E-score” value turn out when CCTCCCAA was run?
**A.** -0.336

**Q.** Which “PBM E-score” value does the source give for CAAATTGC here?
**A.** -0.0349

**Q.** Which “PBM E-score” value does the source give for GGAGGAGA here?
**A.** -0.225

**Q.** For GAACTAGA, which “PBM E-score” value is on record?
**A.** 0.0303

**Q.** With ACGCTGCT as the sequence, how does the “PBM E-score” value read?
**A.** -0.149

**Q.** With GCAAATAA as the sequence, how does the “PBM E-score” value read?
**A.** -0.0301

**Q.** For ATATGCTA, which “PBM E-score” value is on record?
**A.** -0.0667

**Q.** With CGTCTCTA as the sequence, how does the “PBM E-score” value read?
**A.** -0.138

**Q.** How did the “PBM E-score” value turn out when AACCTTCG was run?
**A.** 0.0794

**Q.** Which “PBM E-score” value does the source give for CTGGCGAC here?
**A.** -0.104

**Q.** For AACCGTCA, which “PBM E-score” value is on record?
**A.** -0.0983

**Q.** For GTACTCAC, which “PBM E-score” value is on record?
**A.** 0.387

**Q.** TTGTCAAA was tested. Which “PBM E-score” value did it give?
**A.** 0.0143

**Q.** For TAGGTAGA, which “PBM E-score” value is on record?
**A.** -0.0114

**Q.** AAGTAAAG was tested. Which “PBM E-score” value did it give?
**A.** 0.0788

**Q.** With CCTTCAAA as the sequence, how does the “PBM E-score” value read?
**A.** 0.0202

**Q.** How did the “PBM E-score” value turn out when ATTCCCAG was run?
**A.** 0.125

**Q.** Which “PBM E-score” value does the source give for CTGAGATA here?
**A.** 0.0328

**Q.** ACTGAGCT was tested. Which “PBM E-score” value did it give?
**A.** -0.0605

**Q.** How did the “PBM E-score” value turn out when AAAGACTT was run?
**A.** 0.294

**Q.** With GTCAATGA as the sequence, how does the “PBM E-score” value read?
**A.** 0.281

**Q.** With AAAATGCG as the sequence, how does the “PBM E-score” value read?
**A.** -0.193

**Q.** For CAAGGCGC, which “PBM E-score” value is on record?
**A.** -0.0787

**Q.** For GGGAAAGA, which “PBM E-score” value is on record?
**A.** -0.0818

**Q.** TAAAGATA was tested. Which “PBM E-score” value did it give?
**A.** 0.0837

**Q.** For GGGTGCAA, which “PBM E-score” value is on record?
**A.** -0.174

**Q.** CTTCACTA was tested. Which “PBM E-score” value did it give?
**A.** -0.0581

**Q.** TAGTGCCA was tested. Which “PBM E-score” value did it give?
**A.** -0.174

**Q.** For ACCGAGGA, which “PBM E-score” value is on record?
**A.** -0.138

**Q.** How did the “PBM E-score” value turn out when ACGCTAGA was run?
**A.** -0.083

**Q.** For AGTATGTA, which “PBM E-score” value is on record?
**A.** -0.192

**Q.** For CCATACGA, which “PBM E-score” value is on record?
**A.** -0.0639

**Q.** How did the “PBM E-score” value turn out when ACAATCTG was run?
**A.** -0.113

**Q.** Which “PBM E-score” value does the source give for ATCAAGTA here?
**A.** 0.0766

**Q.** Which “PBM E-score” value does the source give for TAGTAAAA here?
**A.** 0.15

**Q.** For TATCCTAA, which “PBM E-score” value is on record?
**A.** 0.042

**Q.** Which “PBM E-score” value does the source give for AAGCAGTC here?
**A.** 0.213

**Q.** For CGACTGTA, which “PBM E-score” value is on record?
**A.** 0.0408

**Q.** With ACACCGGC as the sequence, how does the “PBM E-score” value read?
**A.** -0.147

**Q.** For GAATTGCA, which “PBM E-score” value is on record?
**A.** -0.148

**Q.** CCAGCTCC was tested. Which “PBM E-score” value did it give?
**A.** -0.194

**Q.** Which “PBM E-score” value does the source give for ATACCTAC here?
**A.** -0.122

**Q.** For GATGACCC, which “PBM E-score” value is on record?
**A.** 0.249

**Q.** Which “PBM E-score” value does the source give for ACTCGAAC here?
**A.** 0.136

**Q.** Which “PBM E-score” value does the source give for AGACTGCG here?
**A.** 0.171

**Q.** For CTATGGAG, which “PBM E-score” value is on record?
**A.** -0.0519

**Q.** How did the “PBM E-score” value turn out when TATTCTGA was run?
**A.** 0.161

**Q.** For AAGTTTAC, which “PBM E-score” value is on record?
**A.** 0.0177

**Q.** Which “PBM E-score” value does the source give for CTAGACGA here?
**A.** -0.0113

**Q.** Which “PBM E-score” value does the source give for ATAGTTTA here?
**A.** 0.0025

**Q.** With AGTACGGC as the sequence, how does the “PBM E-score” value read?
**A.** -0.0761

**Q.** For GCTTGAGA, which “PBM E-score” value is on record?
**A.** -0.169

**Q.** Which “PBM E-score” value does the source give for AGACTGGG here?
**A.** 0.0785

**Q.** With ACACCGGG as the sequence, how does the “PBM E-score” value read?
**A.** -0.01

**Q.** With ATAAAGCA as the sequence, how does the “PBM E-score” value read?
**A.** -0.134

**Q.** How did the “PBM E-score” value turn out when ATATCAAG was run?
**A.** -0.011

**Q.** With CCCCTGAG as the sequence, how does the “PBM E-score” value read?
**A.** -0.017

**Q.** With AGATGTAA as the sequence, how does the “PBM E-score” value read?
**A.** -0.0473

**Q.** Which “PBM E-score” value does the source give for CATACAGG here?
**A.** 0.0371

**Q.** How did the “PBM E-score” value turn out when ACTGAGGG was run?
**A.** -0.13

**Q.** With CTATCATC as the sequence, how does the “PBM E-score” value read?
**A.** -0.0157

**Q.** For CGGTCCAA, which “PBM E-score” value is on record?
**A.** -0.368

**Q.** How did the “PBM E-score” value turn out when ATAGGAAG was run?
**A.** 0.0469

**Q.** ATGCCAGG was tested. Which “PBM E-score” value did it give?
**A.** -0.091

**Q.** For AGGAACTA, which “PBM E-score” value is on record?
**A.** -0.122

**Q.** For CGTGATCA, which “PBM E-score” value is on record?
**A.** 0.221

**Q.** For AATCGTTA, which “PBM E-score” value is on record?
**A.** 0.00204

**Q.** ATATGCCC was tested. Which “PBM E-score” value did it give?
**A.** -0.171

**Q.** TCCACGGA was tested. Which “PBM E-score” value did it give?
**A.** -0.0782

**Q.** For GGCGCTGA, which “PBM E-score” value is on record?
**A.** 0.0434

**Q.** How did the “PBM E-score” value turn out when ATCATGGC was run?
**A.** 0.205

**Q.** ACATGTCG was tested. Which “PBM E-score” value did it give?
**A.** -0.112

**Q.** For GGAGCATA, which “PBM E-score” value is on record?
**A.** -0.196

**Q.** With GTTTTCAA as the sequence, how does the “PBM E-score” value read?
**A.** -0.0484

**Q.** With ACTTGGTC as the sequence, how does the “PBM E-score” value read?
**A.** 0.0534

**Q.** For ACTATGGG, which “PBM E-score” value is on record?
**A.** 0.109

**Q.** CACCGTTC was tested. Which “PBM E-score” value did it give?
**A.** -0.153

**Q.** With CCGCCACG as the sequence, how does the “PBM E-score” value read?
**A.** -0.00786

**Q.** For AGTCGTCC, which “PBM E-score” value is on record?
**A.** 0.364

**Q.** For AAGCATAC, which “PBM E-score” value is on record?
**A.** 0.00069

**Q.** With ACTGCCAC as the sequence, how does the “PBM E-score” value read?
**A.** 0.0332

**Q.** For AGTTCCTC, which “PBM E-score” value is on record?
**A.** -0.21

**Q.** Which “PBM E-score” value does the source give for CCAACCGG here?
**A.** -0.0681

**Q.** With ATAGACAC as the sequence, how does the “PBM E-score” value read?
**A.** 0.0814

**Q.** TGGACCAA was tested. Which “PBM E-score” value did it give?
**A.** -0.147

**Q.** With GCCGATCA as the sequence, how does the “PBM E-score” value read?
**A.** 0.0103

**Q.** For GATTCGAA, which “PBM E-score” value is on record?
**A.** 0.207

**Q.** With ACTAATTA as the sequence, how does the “PBM E-score” value read?
**A.** 0.308

**Q.** With AGATACAC as the sequence, how does the “PBM E-score” value read?
**A.** -0.0582
